# Some of the results follow.
# Key:
# Assay in all cases: glycan array binding signal (z-score within array); higher = stronger binding
# Conditions in all cases: glycan notation: IUPAC condensed, linker removed; mutation: K176L
# [1] = target: Gal6S(b1-4)Glc
# Procedure, shortened: (§1)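 The binding signal is a Z-score computed within each array and averaged over linkers. Arrays of the same protein sequence at different concentrations or buffers were also averaged together. Data originate from 3228 arrays in the Consortium for Functional Glycomics database, kept only where the protein sequence was available.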
# [2] = target: Gal6S(b1-4)Glc6S
# Procedure, shortened: as §1
# [3] = target: Gal6S(b1-4)GlcNAc
# Procedure, shortened: as §1
# [4] = target: Gal6S(b1-4)GlcNAc6S
# Procedure, shortened: as §1
# [5] = target: GalNAc(a1-3)Gal
# Procedure, shortened: as §1
# [6] = target: GalNAc(a1-3)GalNAc
# Procedure, shortened: as §1
# [7] = target: GalNAc(a1-3)GalNAc(a1-3)Gal(a1-4)Gal(b1-4)GlcNAc
# Procedure, shortened: as §1
# [8] = target: GalNAc(b1-3)Gal
# Procedure, shortened: as §1
# [9] = target: GalNAc(b1-3)Gal(a1-4)Gal(b1-4)GlcNAc
# Procedure, shortened: as §1
# [10] = target: GalNAc(b1-3)Gal(a1-4)Gal(b1-4)GlcNAc(b1-3)Gal(b1-4)Glc
# Procedure, shortened: as §1
# [11] = target: GalNAc(b1-3)Gal(a1-6)Gal(b1-4)Glc
# Procedure, shortened: as §1
# [12] = target: GalNAc(b1-3)GalNAc
# Procedure, shortened: as §1
# [13] = target: GalNAc(b1-4)GlcNAc
# Procedure, shortened: as §1
# [14] = target: GalNAc(b1-4)GlcNAc(b1-2)Man(a1-3)[GalNAc(b1-4)GlcNAc(b1-2)Man(a1-6)]Man(b1-4)GlcNAc(b1-4)GlcNAc
# Procedure, shortened: as §1
# [15] = target: Glc(a1-4)Glc
# Procedure, shortened: as §1
# [16] = target: Glc(a1-6)Glc(a1-6)Glc
# Procedure, shortened: as §1
# [17] = target: Glc(b1-4)Glc
# Procedure, shortened: as §1
# [18] = target: Glc(b1-6)Glc
# Procedure, shortened: as §1
# [19] = target: GlcA(b1-3)Gal
# Procedure, shortened: as §1
# [20] = target: GlcA(b1-3)GlcNAc
# Procedure, shortened: as §1
# [21] = target: GlcA(b1-6)Gal
# Procedure, shortened: as §1
# [22] = target: GlcNAc(a1-3)Gal(b1-4)GlcNAc
# Procedure, shortened: as §1
# [23] = target: GlcNAc(a1-4)Gal(b1-3)GlcNAc
# Procedure, shortened: as §1
# [24] = target: GlcNAc(a1-4)Gal(b1-4)GalNAc
# Procedure, shortened: as §1
# [25] = target: GlcNAc(a1-4)Gal(b1-4)GlcNAc
# Procedure, shortened: as §1
# [26] = target: GlcNAc(a1-4)Gal(b1-4)GlcNAc(b1-3)Gal(b1-4)Glc
# Procedure, shortened: as §1
# [27] = target: GlcNAc(a1-4)Gal(b1-4)GlcNAc(b1-3)Gal(b1-4)GlcNAc
# Procedure, shortened: as §1
# [28] = target: GlcNAc(a1-4)Gal(b1-4)GlcNAc(b1-3)Gal(b1-4)GlcNAc(b1-3)Gal(b1-4)GlcNAc
# Procedure, shortened: as §1
# [29] = target: GlcNAc(a1-4)Gal(b1-4)GlcNAc(b1-3)Gal(b1-4)[Fuc(a1-3)]GlcNAc(b1-3)Gal(b1-4)[Fuc(a1-3)]GlcNAc
# Procedure, shortened: as §1
# [30] = target: GlcNAc(a1-6)Gal(b1-4)GlcNAc
# Procedure, shortened: as §1
# [31] = target: GlcNAc(b1-2)Gal(b1-3)GalNAc
# Procedure, shortened: as §1
# [32] = target: GlcNAc(b1-2)Man(a1-3)[GlcNAc(b1-2)Man(a1-6)]Man(b1-4)GlcNAc(b1-4)GlcNAc
# Procedure, shortened: as §1
# [33] = target: GlcNAc(b1-2)Man(a1-3)[GlcNAc(b1-2)Man(a1-6)]Man(b1-4)GlcNAc(b1-4)[Fuc(a1-6)]GlcNAc
# Procedure, shortened: as §1
# [34] = target: GlcNAc(b1-2)[GlcNAc(b1-4)]Man(a1-3)[GlcNAc(b1-2)Man(a1-6)]Man(b1-4)GlcNAc(b1-4)GlcNAc
# Procedure, shortened: as §1
# [35] = target: GlcNAc(b1-3)Gal
# Procedure, shortened: as §1
# [36] = target: GlcNAc(b1-3)Gal(b1-3)GalNAc
# Procedure, shortened: as §1
# [37] = target: GlcNAc(b1-3)Gal(b1-4)Glc
# Procedure, shortened: as §1
# [38] = target: GlcNAc(b1-3)Gal(b1-4)GlcNAc
# Procedure, shortened: as §1
binder,measurement,setting,value
"Gal 3 (Homo sapiens), P17931 (protein) MADNFSLHDALSGSGNPNPQGWPGAWGNQPAGAGGYPGASYPGAYPGQAPPGAYPGQAPPGAYHGAPGAYPGAPAPGVYPGPPSGPGAYPSSGQPSAPGAYPATGPYGAPAGPLIVPYNLPLPGGVVPRMLITILGTVKPNANILDFQRGNDVAFHFNPRFNENNRRVIVCNTLLDNNWGREERQSVFPFESGKPFKIQVLVEPDHFKVAVNDAHLLQYNHRVKKLNEISKLGISGDIDLTSASYTMI",glycan array binding signal (z-score),[1],-0.27
same,glycan array binding signal (z-score),[2],-0.263
same,glycan array binding signal (z-score),[3],-0.265
same,glycan array binding signal (z-score),[4],-0.271
same,glycan array binding signal (z-score),[5],-0.27
same,glycan array binding signal (z-score),[6],-0.27
same,glycan array binding signal (z-score),[7],-0.268
same,glycan array binding signal (z-score),[8],-0.266
same,glycan array binding signal (z-score),[9],-0.269
same,glycan array binding signal (z-score),[10],0.854
same,glycan array binding signal (z-score),[11],-0.27
same,glycan array binding signal (z-score),[12],-0.27
same,glycan array binding signal (z-score),[13],-0.271
same,glycan array binding signal (z-score),[14],-0.26
same,glycan array binding signal (z-score),[15],-0.269
same,glycan array binding signal (z-score),[16],-0.269
same,glycan array binding signal (z-score),[17],-0.274
same,glycan array binding signal (z-score),[18],-0.268
same,glycan array binding signal (z-score),[19],-0.26
same,glycan array binding signal (z-score),[20],-0.271
same,glycan array binding signal (z-score),[21],-0.267
same,glycan array binding signal (z-score),[22],-0.27
same,glycan array binding signal (z-score),[23],-0.259
same,glycan array binding signal (z-score),[24],-0.262
same,glycan array binding signal (z-score),[25],-0.264
same,glycan array binding signal (z-score),[26],-0.263
same,glycan array binding signal (z-score),[27],1.57
same,glycan array binding signal (z-score),[28],5.87
same,glycan array binding signal (z-score),[29],-0.241
same,glycan array binding signal (z-score),[30],-0.269
same,glycan array binding signal (z-score),[31],-0.268
same,glycan array binding signal (z-score),[32],-0.269
same,glycan array binding signal (z-score),[33],-0.259
same,glycan array binding signal (z-score),[34],-0.266
same,glycan array binding signal (z-score),[35],-0.27
same,glycan array binding signal (z-score),[36],-0.272
same,glycan array binding signal (z-score),[37],-0.271
same,glycan array binding signal (z-score),[38],-0.18

# Reference: the supplement of paper PMC8728848
